From PubChem BioAssay AID624417 (National Center for Advancing Translational Sciences (NCATS), 2012)
The whole screen tested about 410,000 compounds, of which about 6,400 (1.6%) were called active. The inconclusive results got no clear call from the source; some entries with a clear call stand among them for comparison. Calls follow the shape of the dose curve; as a rule, active = well fitted inhibition curve with a large enough effect; inconclusive = small, poorly fitted or top-dose-only effect; inactive = no such curve, though single readings can be large or run the other way. No potency is given beside an inconclusive call; the fits are too rough.

Each molecule was assayed against Glucagon-like peptide 1 receptor (Homo sapiens) (UniProt P43220) (assay: qHTS of GLP-1 Receptor Inverse Agonists (Inhibition Mode)). Conditions: HEK293 GLP-1R CRE-luciferase, luminescence, 24 h, GLP-1R form is constitutively active; activity change, negative = inhibition: at 38.3 µM (top of the series) unless noted.
Procedure, shortened: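 Assay principle: reduced luminescence from a cAMP-responsive reporter in HEK293 cells co-expressing a constitutively active GLP-1R. Conditions: 24 hr compound incubation, 37 deg C, 5% CO2.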
% is scaled to controls: 0 for no effect and ±100 for the full control effect; potency is read from the fitted curve at half-maximal effect; tags tell the direction and shape of the fitted curve.
Also: nearly all actives have a fitted effect of over 55% in size.

UniProt P43220, sequence (P43220 whole entry, looked up): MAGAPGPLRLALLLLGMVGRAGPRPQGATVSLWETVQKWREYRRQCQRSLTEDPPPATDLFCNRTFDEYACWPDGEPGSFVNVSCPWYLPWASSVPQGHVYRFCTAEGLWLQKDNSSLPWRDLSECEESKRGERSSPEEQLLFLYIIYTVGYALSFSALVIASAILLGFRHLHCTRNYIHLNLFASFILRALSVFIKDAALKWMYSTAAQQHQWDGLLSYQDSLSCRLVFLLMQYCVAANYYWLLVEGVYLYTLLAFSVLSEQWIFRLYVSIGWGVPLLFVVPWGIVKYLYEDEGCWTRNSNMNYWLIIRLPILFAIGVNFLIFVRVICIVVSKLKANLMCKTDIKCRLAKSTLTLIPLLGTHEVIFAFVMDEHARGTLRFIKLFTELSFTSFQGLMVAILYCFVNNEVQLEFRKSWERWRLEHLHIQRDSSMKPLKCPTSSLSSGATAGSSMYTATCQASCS

Question: For NCCOc1ccccc1Cc1ccccc1, which Potency is on record?
Answer: inconclusive [inhibitor, partial curve, poor fit]

Question: For Cc1nc2c(C(=O)N(C)Cc3ccccc3)c[nH]n2c(=O)c1Cc1ccc(Cl)cc1, which Potency is on record?
Answer: inconclusive [inhibitor, single point]

Question: How did the Potency turn out when CCCCOCCCNC(=O)C[C@@H]1C[C@@]2(C(=O)OC)CCCCC=C2N(Cc2cccc3ccccc23)C1=O was run?
Answer: inconclusive [inhibitor, partial curve, poor fit]

Question: Cc1cc(O)c(C(C)C)cc1N=Cc1ccccc1O was tested. Which Potency did it give?
Answer: inconclusive [inhibitor, single point]

Question: For CCOC(CN=c1nc(N(C)C)ss1)OCC, which Potency is on record?
Answer: inconclusive [inhibitor, full curve, poor fit]

Question: For O=C(NCC(c1ccccc1)c1ccccc1)c1nn(-c2ccccc2Cl)nc1CO, which Potency is on record?
Answer: inconclusive [inhibitor, partial curve, poor fit]

Question: With COc1ccc(-c2c(C#Cc3ccsc3)c3cc(Br)ccc3n2C)cc1 as the molecule, how does the Potency read?
Answer: inconclusive [inhibitor, partial curve, poor fit]

Question: For Cc1ccc(-c2csc(NC(=O)C3CCN(S(=O)(=O)c4cccs4)CC3)n2)cc1, which Potency is on record?
Answer: inconclusive [inhibitor, single point]

Question: CCCC(O)(c1ccc(Cl)cc1)C(CN1CCOCC1)c1ccc(Cl)cc1 (stereo not drawn) was tested. Which Potency did it give?
Answer: inconclusive [inhibitor, full curve, poor fit]

Question: For COc1ccccc1Cc1c(C(C)(C)C)nc2ccc(C)cn12, which “activity change, negative = inhibition” value is on record?
Answer: inactive: -8.87%

Question: Cc1cc(N2CCCCCC2)nc2ccc(F)cc12 was tested. Which Potency did it give?
Answer: inconclusive [inhibitor, single point]

Question: For O=C(Nc1ccccc1C(=O)N1CCOCC1)c1ccc(CSc2ccccc2)cc1, which Potency is on record?
Answer: inconclusive [inhibitor, partial curve, poor fit]

Question: For CCCSCCCNC(=O)CN1C(=O)COc2ccc(S(=O)(=O)N3CCC(C)CC3)cc21, which “activity change, negative = inhibition” value is on record?
Answer: inactive: 11.9%

Question: For CCN(CC)C(=O)/C(=C/c1cn(S(=O)(=O)N(C)C)c2ccccc12)NC(=O)c1ccc(OC)cc1, which Potency is on record?
Answer: inconclusive [inhibitor, partial curve, poor fit]

Question: For Cc1cccc(C)c1NC(=O)c1oc2c(c1C)-c1nn(Cc3ccccc3)cc1CC2, which Potency is on record?
Answer: inconclusive [inhibitor, single point]

Question: For CCCOc1ccc(C(=O)Nc2ccc(Cl)cn2)cc1, which Potency is on record?
Answer: inconclusive [inhibitor, single point]

Question: Which Potency does the source give for C=C(C)C1CCC2(C(=O)O)CCC3(C)C(CCC4C5(C)C(C=O)C(O)C(C)(C)C5CCC43C)C12 (stereo not drawn) here?
Answer: inconclusive [inhibitor, partial curve, poor fit]

Question: How did the “activity change, negative = inhibition” value turn out when COc1cc(OC)c(N(C)C(=O)c2nn(C)c3c2CSc2ccccc2-3)cc1Cl was run?
Answer: inactive: 9.38%

Question: For CCN(CC)CCCNC(=O)Cn1nc(N2CCN(c3ccccc3OC)CC2)ccc1=O, which “activity change, negative = inhibition” value is on record?
Answer: inactive: -7.45%

Question: How did the Potency turn out when O=C(Cc1cccc2ccccc12)Nc1ccc(N2CCOCC2)cc1 was run?
Answer: inconclusive [inhibitor, single point]

Question: For CN1C(=O)Cc2cc(S(=O)(=O)CCC(=O)Nc3ccccc3)ccc21, which “activity change, negative = inhibition” value is on record?
Answer: inactive: 9.7%

Question: Which Potency does the source give for O=C1CN(C(=O)c2ccccc2F)C(c2ccccc2)c2cc(F)ccc2N1 (stereo not drawn) here?
Answer: inconclusive [inhibitor, partial curve]

Question: Which Potency does the source give for CC(=O)C1=C(c2ccc(Cl)c(Cl)c2)N(C(C)=O)n2c(C)nnc2S1 here?
Answer: active: 11.2 µM

Question: Which Potency does the source give for CNc1ccc(Br)cc(C(=O)/C=C/c2cc(OC)ccc2OC)c1=O here?
Answer: inconclusive [inhibitor, partial curve, poor fit]

Question: COc1ccc(-c2csc(C(C)(O)c3ccccc3)n2)cn1 (stereo not drawn) was tested. Which Potency did it give?
Answer: inconclusive [inhibitor, single point]

Question: How did the Potency turn out when Cc1cccc(N2CCN(C(=O)CC(NC(=O)c3ccccc3Cl)c3ccccc3)CC2)c1C (stereo not drawn) was run?
Answer: inconclusive [inhibitor, partial curve, poor fit]

Question: Which Potency does the source give for O=C(NCCc1ccccn1)c1cc(-c2ccc(Cl)c(Cl)c2Cl)nc2ccccc12 here?
Answer: inconclusive [inhibitor, partial curve]

Question: Which Potency does the source give for Cc1cc(C(=O)NCC(c2cccs2)N2CCOCC2)ccc1[N+](=O)[O-] (stereo not drawn) here?
Answer: inconclusive [inhibitor, single point]

Question: For S=C(Nc1cccc(Br)c1)N1CCn2cccc2C1c1cccnc1 (stereo not drawn), which Potency is on record?
Answer: inconclusive [inhibitor, partial curve, poor fit]

Question: Which Potency does the source give for Cc1ccccc1C1NC(c2ccccc2C)C([N+](=O)[O-])C(C)(C)C1[N+](=O)[O-] (stereo not drawn) here?
Answer: inconclusive [inhibitor, partial curve, poor fit]

Question: For O=S(=O)(Nc1ccccc1C(F)(F)F)c1ccc(-c2ccccn2)s1, which Potency is on record?
Answer: inconclusive [inhibitor, partial curve, poor fit]

Question: With O=C(CCn1cnc2ccccc2c1=O)NCc1ccccc1 as the molecule, how does the “activity change, negative = inhibition” value read?
Answer: inactive: -13.5%

Question: For O=C1NN(c2ccccc2)C(=O)/C1=C\c1coc2ccc(O)cc2c1=O, which Potency is on record?
Answer: inconclusive [inhibitor, full curve, poor fit]

Question: CCN(CCCNC(=O)C1CCC(=O)N1Cc1ccc(F)cc1)c1cccc(C)c1 (stereo not drawn) was tested. Which Potency did it give?
Answer: inconclusive [inhibitor, partial curve, poor fit]

Question: With O=C(c1ccc(CN2CCc3ccccc3C2)cc1)N1CCN(c2ccccc2)CC1 as the molecule, how does the Potency read?
Answer: inconclusive [inhibitor, full curve, poor fit]

Question: How did the Potency turn out when O=C(CCCOC(=O)c1ccc(O)cc1O)c1ccc(F)cc1 was run?
Answer: inconclusive [inhibitor, single point]

Question: For S=C(NCc1ccc(Cl)cc1)NCc1ccco1, which Potency is on record?
Answer: inconclusive [inhibitor, partial curve, poor fit]

Question: With COc1ccc(NC(=O)N2CCN(C(=O)C(Cc3ccc(F)cc3)NC(C)=O)CC2)cc1 (stereo not drawn) as the molecule, how does the activity change, negative = inhibition read?
Answer: inactive: 9.45% [at 7.66 µM]

Question: For O=C(O)C1=C(C(=O)O)C2CCC1C2, which “activity change, negative = inhibition” value is on record?
Answer: inactive: -13.1%

Question: How did the Potency turn out when O=S(=O)(c1ccc2[nH]c3c(c2c1)CCCCC3)N1CCN(c2ccccc2)CC1 was run?
Answer: inconclusive [inhibitor, single point]

Question: For Cc1nc2ccn(Cc3cccs3)c(=O)c2cc1C(=O)NCc1ccccc1, which Potency is on record?
Answer: inconclusive [inhibitor, full curve, poor fit]

Question: Which Potency does the source give for COC(=O)c1cn(N(C)c2ncc(C(F)(F)F)cc2Cl)c(=O)c2ccccc12 here?
Answer: inconclusive [inhibitor, partial curve, poor fit]

Question: Which “activity change, negative = inhibition” value does the source give for Cc1ccccc1/C=C1\OC(=O)c2ccccc21 here?
Answer: inactive: -4.63%

Question: How did the Potency turn out when O=C(Nc1ccccc1)c1ccc(NC2CCCCC2)c(S(=O)(=O)N2CCOCC2)c1 was run?
Answer: inconclusive [inhibitor, single point]

Question: How did the Potency turn out when COc1ccccc1-c1cc(C(=O)NCc2ccc(F)cc2)no1 was run?
Answer: inconclusive [inhibitor, single point]

Question: For COc1ccc(C2=NN(C(=O)c3ccccc3)C(c3cccc([N+](=O)[O-])c3)C2)cc1 (stereo not drawn), which Potency is on record?
Answer: inconclusive [inhibitor, single point]

Question: With O=C(Cc1cccc2ccccc12)N/N=C/c1ccc(F)cc1 as the molecule, how does the Potency read?
Answer: inconclusive [inhibitor, partial curve, poor fit]

Question: How did the Potency turn out when Cc1cc(C)cc(C(=O)N(CCc2ccccc2)C2CC3CCC(C2)N3C)c1 (stereo not drawn) was run?
Answer: inconclusive [inhibitor, single point]

Question: For COc1ccc(C2C3C(=O)N(Cc4ccccc4)C(=O)C3ON2c2ccccc2)c(OC)c1OC (stereo not drawn), which Potency is on record?
Answer: inconclusive [inhibitor, partial curve]

Question: With Cc1occc1C(=O)N/N=C/c1ccc2c(c1)OCO2 as the molecule, how does the Potency read?
Answer: inconclusive [inhibitor, single point]

Question: Which Potency does the source give for COc1ccccc1Nc1nc(Cl)nc(NC(C)(C)C)n1 here?
Answer: inconclusive [inhibitor, single point]

Question: How did the Potency turn out when NC(=O)C(c1ccc(Cl)cc1)c1ccc(Sc2ccc(Cl)cc2)nn1 (stereo not drawn) was run?
Answer: inconclusive [inhibitor, single point]

Question: For CC(=O)OC(C)C1C2=C(C(=O)CC1(C)O)C(=O)c1c(ccc(-c3ccc4c(c3O)C(=O)C3=C(C4=O)C(C(C)OC(C)=O)C(C)(O)CC3=O)c1O)C2=O (stereo not drawn), which “activity change, negative = inhibition” value is on record?
Answer: inactive: 0.88%

Question: With O=C(NCC(c1ccco1)N1CCCC1)c1cc(S(=O)(=O)N2CCCCC2)ccc1Cl (stereo not drawn) as the molecule, how does the Potency read?
Answer: inconclusive [inhibitor, single point]

Question: How did the “activity change, negative = inhibition” value turn out when O=C(NNC(=O)C1CC1c1ccccc1)c1cccc([N+](=O)[O-])c1 (stereo not drawn) was run?
Answer: inactive: 9.02%

Question: Which Potency does the source give for COc1ccc(/C=N\NC(=O)c2cc(OCC(F)(F)F)ccc2OCC(F)(F)F)cc1 here?
Answer: inconclusive [inhibitor, partial curve, poor fit]

Question: For Cc1ccc(C)c(CN2C(=O)COc3ccccc32)c1, which Potency is on record?
Answer: inconclusive [inhibitor, partial curve, poor fit]

Question: O=C(c1cn(CCOc2ccccc2F)c2ccccc12)C1CCCCC1 was tested. Which “activity change, negative = inhibition” value did it give?
Answer: inactive: -17%

Question: Which “activity change, negative = inhibition” value does the source give for CC1(C(=O)Nc2cccc(-n3cnnn3)c2)Cc2ccccc2C(=O)O1 (stereo not drawn) here?
Answer: inactive: 11.9%

Question: With O=C(Nc1cccc(Cl)c1)c1cc(S(=O)(=O)NCCc2ccc(Cl)cc2)ccc1F as the molecule, how does the Potency read?
Answer: active: 5.62 µM

Question: CCCCn1nnnc1C(c1cccs1)N1CCN(C/C=C/c2ccccc2)CC1 (stereo not drawn) was tested. Which Potency did it give?
Answer: inconclusive [inhibitor, single point]

Question: How did the Potency turn out when CCOc1ccc(NC(=S)N(CCc2c(C)[nH]c3ccccc23)Cc2ccco2)cc1 was run?
Answer: inconclusive [inhibitor, single point]

Question: For CC(/C=N/NC(=S)Nc1cccc(S(=O)(=O)N(C)C)c1)c1ccccc1 (stereo not drawn), which “activity change, negative = inhibition” value is on record?
Answer: inactive: -24%
